Measured values from article PMC6919601, “Identification of Plasmodium dipeptidyl aminopeptidase allosteric inhibitors by high throughput screening” (PLoS ONE, 2019).
Screen size: about 110,000 compounds; about 230 (0.21%) showed an effect of 50% or more. Some of the results follow.

molecular target: DPAP1 (Plasmodium falciparum, UniProt Q8IIJ9); assay: primary screen, percent inhibition; read by cleavage of a fluorogenic dipeptide substrate; higher = more effect of the substance; design: species or system P. falciparum D10 trophozoite lysates; single well
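Further: 30 min substrate incubation versus DMSO and 10 µM JCP410 controls.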

Chain of DPAP1 (Q8IIJ9 whole entry, looked up): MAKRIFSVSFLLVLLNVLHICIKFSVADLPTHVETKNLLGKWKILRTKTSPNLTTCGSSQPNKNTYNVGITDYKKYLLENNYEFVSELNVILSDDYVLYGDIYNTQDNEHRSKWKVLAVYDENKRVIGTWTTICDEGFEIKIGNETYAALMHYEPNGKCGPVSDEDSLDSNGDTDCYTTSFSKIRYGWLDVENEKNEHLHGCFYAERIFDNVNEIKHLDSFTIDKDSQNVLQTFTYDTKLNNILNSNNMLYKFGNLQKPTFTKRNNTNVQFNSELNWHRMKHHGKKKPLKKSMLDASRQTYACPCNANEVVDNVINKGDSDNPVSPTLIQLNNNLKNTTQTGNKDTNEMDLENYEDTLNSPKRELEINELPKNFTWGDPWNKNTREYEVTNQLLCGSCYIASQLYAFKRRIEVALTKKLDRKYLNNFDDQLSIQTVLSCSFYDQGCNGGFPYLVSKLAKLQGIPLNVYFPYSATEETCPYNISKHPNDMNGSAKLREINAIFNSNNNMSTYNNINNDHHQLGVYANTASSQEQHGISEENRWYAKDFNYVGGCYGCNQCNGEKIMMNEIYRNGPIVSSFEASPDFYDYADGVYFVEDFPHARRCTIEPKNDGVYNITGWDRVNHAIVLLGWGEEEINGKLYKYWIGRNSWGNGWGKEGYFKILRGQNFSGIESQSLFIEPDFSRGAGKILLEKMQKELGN

Row | SMILES | % Inhibition @ 10 uM
1 | CCOC(=O)N1CCC(NC2CCCCC2C)CC1 (stereo not shown) | 3.48%
2 | OCCNc1nc(O)c2c(n1)-c1ccccc1CC21CCCC1 | -3.77%
3 | CCSCCOC(=O)C1=C(C)NC(=O)CC1c1c(F)cccc1Cl (stereo not shown) | 1.97%
4 | CCc1nn(CC(=O)N(C)Cc2ccccc2)c(=O)c2cc3occc3n12 | -5.63%
5 | CCOC(=O)c1c(NC(=O)CO/N=C/c2ccc(OC)cc2)sc2c1CCCC2 | 1.97%
6 | CCCN1CCC(N2CCCC(C(=O)N(CC)CC)C2)CC1 (stereo not shown) | -0.0908%
7 | Cn1cc(CCCC(=O)N2CCCC2)c2ccccc21 | 3.17%
8 | COc1cccc(C2C(C(=O)c3ccc4c(c3)OCCO4)=C(O)C(=O)N2CC2CCCO2)c1 (stereo not shown) | -0.0619%
9 | Cc1ccccc1OCC(=O)Nc1ccc2c(c1)OCO2 | 2.5%
10 | N#Cc1nc(/C=C/c2ccc(F)cc2)oc1NCc1ccccc1 | -4.39%
11 | C=CCNc1nc(N)c(C(=O)C23CC4CC(CC(C4)C2)C3)s1 | 0.726%
12 | CC(C(=O)O)n1nc(-c2ccccc2)c2cc(Cl)ccc21 (stereo not shown) | 3.24%
13 | COC(=O)c1sc(NC(=O)COc2ccc(C)cc2)nc1C | -5.63%
14 | CCN1CCN(CC(O)COc2ccc(C)cc2C)CC1 (stereo not shown) | 0.823%
15 | CCOc1ccccc1C1C(C#N)=C(N)Nc2onc(-c3ccccc3)c21 (stereo not shown) | 0.317%
16 | COc1ccccc1-c1c(C)nn2c(O)cc(Cc3ccccc3)nc12 | -2.83%
17 | CCCC1CCC(C2=N/C(=C/c3cc(OC)c(OC)c(OC)c3)C(=O)O2)CC1 (stereo not shown) | 1.81%
18 | CCOc1ccc(Cc2onc3c2C(=O)CC(C)(C)C3)cc1OCC | -2.19%
19 | Cc1[nH]nc2c1C(c1ccc3c(c1)OCO3)C(C#N)=C(N)O2 (stereo not shown) | 2.38%
20 | CN(C)CC(=O)N1CCc2ccccc2C(c2ccccc2)C1 (stereo not shown) | -3.06%
21 | c1ccc2c(OCc3nc4c5c6c(sc5ncn4n3)CCCC6)cccc2c1 | -3.28%
22 | CCOCCn1cnc2sc(C(=O)N3CCC4(CC3)OCCO4)c(C)c2c1=O | 1.2%
23 | CCc1ccc(NC(=O)c2ccc(Cl)c([N+](=O)[O-])c2)cc1 | 1.91%
24 | CON(C)c1nc(OCCNC(=O)COc2ccc(Cl)cc2C)nc(N(C)C)n1 | -3.02%
25 | COc1ccc(OC)c(CNC(=O)c2cc3cc4cc(OC)ccc4nc3s2)c1 | 4.1%
26 | O=C(NC1(C(F)(F)F)C(=O)Nc2c1c(=O)[nH]c(=O)n2-c1ccccc1F)c1ccncc1 (stereo not shown) | -4.26%
27 | Cc1cnn(-c2cc(Oc3ccccc3)ncn2)c1 | -3.19%
28 | Cc1ccc2c(c1)c1c(n2CCC#N)C(=O)CCC1 | -3.65%
